In all, about 33,000 sequences were measured (“E-score (-0.5 to 0.5)”: median about -0.012, highest 2% from about 0.27 on). The list shows a part of the results.
biological target: T1, Vhr1 (UniProt P40522); test: PBM E-score (8-mer binding enrichment) (E-score (-0.5 to 0.5)); higher = stronger / more preferred TF binding; most listed sequences are background and not binding sites; details: protein concentration: 200 nM; construct: GST-full length
T1 sequence: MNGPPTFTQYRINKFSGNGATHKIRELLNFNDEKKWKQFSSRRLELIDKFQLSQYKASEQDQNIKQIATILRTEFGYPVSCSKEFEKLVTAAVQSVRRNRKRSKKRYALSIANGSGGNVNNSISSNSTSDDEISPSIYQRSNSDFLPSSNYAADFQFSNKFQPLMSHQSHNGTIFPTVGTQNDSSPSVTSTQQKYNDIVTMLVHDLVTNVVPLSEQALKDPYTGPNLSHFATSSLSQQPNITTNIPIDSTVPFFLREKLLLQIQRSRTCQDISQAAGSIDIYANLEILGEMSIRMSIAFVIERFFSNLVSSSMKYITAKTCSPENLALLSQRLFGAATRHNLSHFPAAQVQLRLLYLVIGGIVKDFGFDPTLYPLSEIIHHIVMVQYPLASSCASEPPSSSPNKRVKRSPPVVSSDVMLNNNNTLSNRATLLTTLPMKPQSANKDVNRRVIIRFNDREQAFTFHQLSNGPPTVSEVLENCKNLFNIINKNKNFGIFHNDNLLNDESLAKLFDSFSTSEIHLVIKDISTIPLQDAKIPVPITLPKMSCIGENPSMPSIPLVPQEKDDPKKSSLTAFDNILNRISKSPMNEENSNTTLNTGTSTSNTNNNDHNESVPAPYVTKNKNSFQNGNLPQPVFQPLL
Method in brief: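 Bound GST-tagged yeast transcription factors, applied at about 100-200 nM to double-stranded universal all-10-mer Agilent arrays, were detected with fluorescent anti-GST. Scans were normalised with masliner. A modified Wilcoxon-Mann-Whitney statistic, the E-score, was assigned to each ungapped eight-base word pooled with its reverse complement by the Universal PBM Analysis Suite.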

Question: How did the “PBM E-score” value turn out when CGCGTGCA was run?
Answer: -0.0837

Question: With CGAATCAA as the sequence, how does the “PBM E-score” value read?
Answer: 0.127

Question: With CTCAGTCC as the sequence, how does the “PBM E-score” value read?
Answer: -0.0479

Question: How did the “PBM E-score” value turn out when CAACCATA was run?
Answer: 0.0913

Question: With ATGCATAG as the sequence, how does the “PBM E-score” value read?
Answer: 0.013

Question: Which “PBM E-score” value does the source give for CGCTAAGA here?
Answer: -0.0237

Question: GCGTAAGC was tested. Which “PBM E-score” value did it give?
Answer: -0.199

Question: How did the “PBM E-score” value turn out when CCGTGTAG was run?
Answer: 0.158

Question: How did the “PBM E-score” value turn out when CAGCTATA was run?
Answer: 0.0587

Question: AGGGTCAA was tested. Which “PBM E-score” value did it give?
Answer: 0.0107

Question: For CCAGCAGC, which “PBM E-score” value is on record?
Answer: -0.0972

Question: Which “PBM E-score” value does the source give for ATAAGTTA here?
Answer: 0.0404

Question: Which “PBM E-score” value does the source give for GGTAATAC here?
Answer: 0.14

Question: With AGCCCTTA as the sequence, how does the “PBM E-score” value read?
Answer: -0.318

Question: How did the “PBM E-score” value turn out when GTCGTAAC was run?
Answer: 0.118

Question: With ACCGATAA as the sequence, how does the “PBM E-score” value read?
Answer: -0.125

Question: How did the “PBM E-score” value turn out when GAAGCGCA was run?
Answer: -0.188

Question: For GCCTCTAC, which “PBM E-score” value is on record?
Answer: -0.15

Question: Which “PBM E-score” value does the source give for CCTTGCCA here?
Answer: -0.091

Question: For ATACTAAG, which “PBM E-score” value is on record?
Answer: -0.103

Question: For GAATTCCC, which “PBM E-score” value is on record?
Answer: -0.242

Question: CCGAGAAA was tested. Which “PBM E-score” value did it give?
Answer: -0.0769

Question: How did the “PBM E-score” value turn out when ATGCTGCC was run?
Answer: 0.00421

Question: For ACTAGCAG, which “PBM E-score” value is on record?
Answer: 0.0888

Question: Which “PBM E-score” value does the source give for CTGTAGTC here?
Answer: 0.241

Question: With AGCTCTAC as the sequence, how does the “PBM E-score” value read?
Answer: -0.221

Question: For AGAGCAGC, which “PBM E-score” value is on record?
Answer: -0.0947

Question: TCCATTCA was tested. Which “PBM E-score” value did it give?
Answer: -0.102

Question: CAACTCGG was tested. Which “PBM E-score” value did it give?
Answer: 0.0466

Question: Which “PBM E-score” value does the source give for GACTGACC here?
Answer: -0.0132

Question: ACCCACAA was tested. Which “PBM E-score” value did it give?
Answer: 0.248

Question: For CAAGTTTC, which “PBM E-score” value is on record?
Answer: -0.0188

Question: How did the “PBM E-score” value turn out when ACCATGCT was run?
Answer: 0.107

Question: With CTAGCTGC as the sequence, how does the “PBM E-score” value read?
Answer: -0.0727

Question: How did the “PBM E-score” value turn out when GACCAATA was run?
Answer: -0.105

Question: With AGTGCCAT as the sequence, how does the “PBM E-score” value read?
Answer: -0.134

Question: Which “PBM E-score” value does the source give for GCACTAGC here?
Answer: -0.0838

Question: Which “PBM E-score” value does the source give for CCGCCCTC here?
Answer: -0.0458

Question: GGCTGCTA was tested. Which “PBM E-score” value did it give?
Answer: 0.0128

Question: For CCGTCGGA, which “PBM E-score” value is on record?
Answer: -0.0573

Question: For ATCGGCCA, which “PBM E-score” value is on record?
Answer: -0.237

Question: For ACCAGCCA, which “PBM E-score” value is on record?
Answer: 0.131

Question: For CACGTACC, which “PBM E-score” value is on record?
Answer: -0.0762

Question: For GACGACGC, which “PBM E-score” value is on record?
Answer: -0.049

Question: With CGTGTCAC as the sequence, how does the “PBM E-score” value read?
Answer: 0.126

Question: For CCTTATTA, which “PBM E-score” value is on record?
Answer: -0.0811

Question: Which “PBM E-score” value does the source give for AAGGCATT here?
Answer: -0.186

Question: Which “PBM E-score” value does the source give for AAAGGTGT here?
Answer: -0.0992

Question: With CAGGACTC as the sequence, how does the “PBM E-score” value read?
Answer: 0.18

Question: For CCCCAGAG, which “PBM E-score” value is on record?
Answer: -0.156

Question: Which “PBM E-score” value does the source give for ACCCACTC here?
Answer: 0.282

Question: AATTGACT was tested. Which “PBM E-score” value did it give?
Answer: 0.149

Question: AGCGGTCG was tested. Which “PBM E-score” value did it give?
Answer: -0.301

Question: With ATGTTCTA as the sequence, how does the “PBM E-score” value read?
Answer: -0.107

Question: With AAACTTGC as the sequence, how does the “PBM E-score” value read?
Answer: -0.0278

Question: How did the “PBM E-score” value turn out when ACCTCCCA was run?
Answer: -0.119

Question: With ATACGTCA as the sequence, how does the “PBM E-score” value read?
Answer: -0.105

Question: AGCCCCAG was tested. Which “PBM E-score” value did it give?
Answer: -0.122

Question: Which “PBM E-score” value does the source give for AATGAGCA here?
Answer: -0.215

Question: Which “PBM E-score” value does the source give for GCGAAGAC here?
Answer: -0.056

Question: CGTTCTTC was tested. Which “PBM E-score” value did it give?
Answer: -0.00307

Question: GAAAACCC was tested. Which “PBM E-score” value did it give?
Answer: -0.139

Question: For GTTCACCA, which “PBM E-score” value is on record?
Answer: -0.0385

Question: How did the “PBM E-score” value turn out when AATTCATC was run?
Answer: -0.292

Question: How did the “PBM E-score” value turn out when GCCGAAGC was run?
Answer: -0.137

Question: With AGGTGCCG as the sequence, how does the “PBM E-score” value read?
Answer: -0.0827

Question: With CCGTAGAG as the sequence, how does the “PBM E-score” value read?
Answer: -0.214

Question: How did the “PBM E-score” value turn out when CGCTAAAC was run?
Answer: -0.156

Question: CAGTAAGC was tested. Which “PBM E-score” value did it give?
Answer: 0.0436

Question: Which “PBM E-score” value does the source give for ATGCCCAG here?
Answer: -0.161

Question: For CGGGCATC, which “PBM E-score” value is on record?
Answer: 0.0347

Question: With GATAATAA as the sequence, how does the “PBM E-score” value read?
Answer: -0.0106

Question: For CGGAAGTA, which “PBM E-score” value is on record?
Answer: -0.175

Question: Which “PBM E-score” value does the source give for CCCCACCG here?
Answer: 0.188

Question: GATATTGC was tested. Which “PBM E-score” value did it give?
Answer: 0.0198

Question: AGTCCGAA was tested. Which “PBM E-score” value did it give?
Answer: -0.0324

Question: How did the “PBM E-score” value turn out when ATAGTTGG was run?
Answer: 0.0627

Question: For CCCAAGGG, which “PBM E-score” value is on record?
Answer: -0.227

Question: How did the “PBM E-score” value turn out when GTGACGAA was run?
Answer: -0.0752

Question: For ACCGGGAC, which “PBM E-score” value is on record?
Answer: 0.101

Question: For AATAAGAG, which “PBM E-score” value is on record?
Answer: -0.0226

Question: Which “PBM E-score” value does the source give for AGGAGTAC here?
Answer: -0.0429

Question: AATTTTAT was tested. Which “PBM E-score” value did it give?
Answer: -0.00812

Question: CACCATTC was tested. Which “PBM E-score” value did it give?
Answer: 0.0568

Question: With ACCAATGA as the sequence, how does the “PBM E-score” value read?
Answer: 0.189

Question: With ATTCAAAC as the sequence, how does the “PBM E-score” value read?
Answer: 0.00299
